According to the supplement of paper PMC3334620:
Over roughly 33,000 sequences, “E-score (-0.5 to 0.5)” has its median near -0.036; the highest 2% begin near 0.37. The list shows a part of the results.

Biological target: T1, Yer064c (UniProt P40041)
T1 sequence: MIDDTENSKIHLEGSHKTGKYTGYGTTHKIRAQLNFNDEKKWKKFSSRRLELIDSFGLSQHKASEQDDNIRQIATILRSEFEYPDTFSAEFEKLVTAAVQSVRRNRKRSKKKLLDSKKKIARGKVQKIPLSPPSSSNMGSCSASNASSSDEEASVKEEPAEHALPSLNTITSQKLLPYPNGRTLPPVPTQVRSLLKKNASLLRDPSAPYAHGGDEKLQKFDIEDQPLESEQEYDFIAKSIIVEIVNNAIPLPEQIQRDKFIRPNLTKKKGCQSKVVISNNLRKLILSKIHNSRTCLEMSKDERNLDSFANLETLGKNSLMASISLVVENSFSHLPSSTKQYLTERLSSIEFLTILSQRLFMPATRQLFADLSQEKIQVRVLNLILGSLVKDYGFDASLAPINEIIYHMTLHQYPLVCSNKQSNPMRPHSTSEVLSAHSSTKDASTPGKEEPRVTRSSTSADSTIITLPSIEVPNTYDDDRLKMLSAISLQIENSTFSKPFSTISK
Assay: PBM E-score (8-mer binding enrichment) (E-score (-0.5 to 0.5)); higher = stronger / more preferred TF binding; most listed sequences are background and not binding sites
Details: protein concentration: 200 nM; construct: GST-full length
In short: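 Bound GST-tagged yeast transcription factors, applied at about 100-200 nM to double-stranded universal all-10-mer Agilent arrays, were detected with fluorescent anti-GST. Scans were normalised with masliner. A modified Wilcoxon-Mann-Whitney statistic, the E-score, was assigned to each ungapped eight-base word pooled with its reverse complement by the Universal PBM Analysis Suite.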

Point of comparison: GGCTTGCA, “PBM E-score” value -0.0945. Against it:
- ATACCACC — lower, -0.108
- CATGCTAG — lower, -0.159
- GGTTCTAC — lower, -0.178
- CTTGCTCC — higher, 0.0348
- GTCGACTA — higher, 0.335
- CTCTATCC — lower, -0.267
- GCTCAAAA — higher, 0.116
- AATTCAAG — higher, 0.0474
- ACTTGGGA — higher, -0.0214
- TTATTAAA — higher, 0.138
- CTCATGCA — higher, 0.113
- GGCATGCC — lower, -0.277
- AGATTCGA — higher, 0.112
- AAAGACCT — higher, -0.0342
- GATTGATA — higher, 0.261
- ATTTTCTC — higher, -0.00289
- AGTAGCCA — higher, 0.242
- CTGATAGA — higher, 0.116
- CATGCTGC — higher, -0.0684
- CCCTTATA — lower, -0.188
- AAGGAAAG — lower, -0.207
- AACGGGGC — lower, -0.124
- CTCAAGTC — higher, 0.271
- AAACGCCA — higher, -0.05
- AATATGGT — higher, 0.00839
- ATAGGACC — lower, -0.281
- AACGTCAA — higher, -0.02
- CTTGTGAA — higher, -0.0204
- AAGGTGCA — lower, -0.182
- CGTAGTCC — higher, 0.262
- GATTCATA — higher, 0.381
- CAAAGAGG — lower, -0.178
- CTAGGAGC — higher, -0.0611
- CAATAGCC — lower, -0.0998
- AATCGACT — higher, 0.258
- CCTAGCAA — lower, -0.175
- ACGTGACT — higher, 0.468
- CCTCGCTC — lower, -0.111
- TGGTTCAA — higher, 0.265
- GACACGAC — higher, 0.208
- AATGACTA — higher, 0.487
- AAGATGAT — higher, 0.348
- CGACCGCA — lower, -0.352
- AGCTGTAG — higher, 0.0475
- ATGTGGGG — lower, -0.163
- GCCCCCAA — lower, -0.254
- ACATTGGT — lower, -0.152
- GGTAGAAC — lower, -0.205
- GAGGTGGC — higher, -0.0588
- ACTATAAG — higher, 0.213
- TGGATTAA — higher, 0.172
- CGCTGACA — higher, -0.082
- CTCCCGTA — higher, -0.0922
- AGCCGAAA — higher, 0.0999
- GTGCTAAC — higher, -0.0654
- AATTTACC — lower, -0.11
- ATCATATA — higher, 0.195
- CCACAATC — higher, 0.163
- CTCCTATA — higher, -0.06
- TAAGGACA — lower, -0.11
- GCACTTAC — lower, -0.222
- GAACTGAA — higher, -0.0409
- AGTCCGGC — higher, 0.191
- CGTGCCTC — higher, 0.0173
- CAGGAAGA — higher, -0.0436
- ACGTCTGA — higher, 0.0833
- ACATAGAG — higher, -0.0729
- ACGGACCA — lower, -0.125
- CTGACACC — higher, 0.0472
- ACAATGCT — higher, -0.0617
- AGTCTACG — higher, 0.0206
- CAGGGTAG — lower, -0.107
- AGCAACAC — higher, -0.0475
- GGTCCACC — lower, -0.266
- GTCCAGAC — lower, -0.116
- AGCTATCA — higher, -0.0169
- GCTACTGA — higher, 0.18
- CAGTGACC — higher, -0.00082
- CCTGCAAA — lower, -0.134
- GAAAGAAA — higher, -0.0206
- GTAGGGTA — higher, -0.0234
- AACGGTAA — higher, 0.0279
- ACTCCCGA — higher, 0.22
- TACAAGAA — higher, 0.0444
- GTAAGCAC — higher, -0.0905
- CCGGGCTA — higher, -0.0362
- CTAGTCAC — higher, 0.461
- GTTGACAA — higher, -0.00857
- CACAGGTG — higher, 0.0776
- CTGCCCAA — lower, -0.185
- AACTACCC — lower, -0.158
- ATACGTGC — lower, -0.121
- AAGGTAGA — lower, -0.209
- AGATTTAA — higher, 0.2
- AATCGTAG — higher, 0.205
- CGTCCCAC — lower, -0.266
- ACACGCGC — higher, 0.144
- CTAAGGCA — higher, 0.0444
- GAGTTGCA — higher, -0.00197
- CTCGAATA — higher, -0.0731
- ATGCACCG — lower, -0.173
- AAAGAATT — higher, -0.0489
- CCGCACAA — lower, -0.122
- CTGCCATC — lower, -0.212
- AAGTGGTC — higher, -0.0366
- GAGGTACC — lower, -0.107
- ACCCGCTA — lower, -0.134
- CGACACCC — higher, -0.0371
- ATTCTGTA — higher, 0.0953
- AGAAGTAA — higher, 0.0211
- AAATTATG — higher, 0.0387
- CGCATCTA — higher, -0.0834
- CATGTCCC — higher, -0.0789
- CCGTTAAG — lower, -0.183
- TGCAATAA — higher, 0.041
- GATCAGCC — higher, 0.0932
- CGGTAGAA — higher, -0.0656
- ATTGACGG — higher, -0.0819
- AACGTGAC — higher, 0.104
- CGGATTGA — higher, 0.0416
- AGTTTGGG — higher, -0.0255
- AGCGGATC — higher, -0.053
- AATGATGC — higher, -0.0368
- AGCAAAAC — higher, -0.0941
- AATCAGTG — higher, 0.239
- ACCACCAG — higher, 0.0691
- GCCCTTAC — lower, -0.167
- CTATAAGA — higher, 0.0928
- GCGGGCAC — higher, -0.0624
- ACTCGAGA — higher, 0.24
- CAGGGGCC — lower, -0.269
- GTCATCGA — higher, 0.389
- TCCGTCGA — higher, -0.0817
- CTCCTCAG — higher, 0.0502
- CTTCCAGC — lower, -0.114
- TCGAAACA — higher, 0.207
- GGCGCGCA — lower, -0.246
- TCCTGCGA — higher, 0.0947
- ATGCTTTA — higher, -0.0329
- CGGAGGTA — higher, 0.164
- AGCTTTTC — lower, -0.18
- AGAGGTCG — higher, 0.0208
- CTCGAGTA — higher, 0.109
- CTTGTAAC — higher, 0.102
- AGGTTACG — lower, -0.183
- ACATTAGT — higher, 0.13
- GTAAGCAA — higher, -0.0587
- CCGCAGTA — higher, -0.0332
- AATACTTA — higher, 0.12
- TACGAGGA — higher, -0.0579
- ATACTTAA — higher, 0.179
- TAATTCGA — higher, 0.0432
- CTTTTGGC — higher, -0.0163
- AATGCAAC — lower, -0.256
- ATTTCAGC — lower, -0.18
- CTGACATC — lower, -0.222
- CAGTTTAA — higher, 0.0554
- ACCTGGGA — lower, -0.104
- GGCCAAAA — lower, -0.0971
- AGATGCGG — lower, -0.102
- CCAACCTA — lower, -0.291
- CACCATAG — higher, -0.0571
- CATAACAC — higher, 0.0877
- ACGACACC — higher, 0.0392
- CATGCAAA — higher, -0.0743
- CATCTCAG — higher, 0.00118
- CAGCTGCG — higher, -0.0211
- GTACTTCA — higher, 0.134
- AACCACCG — higher, 0.0976
- ACGCGGAA — higher, -0.064
- CTATCGAA — lower, -0.0972
